For seven molecules, binding results are on record in publication PMC4468146.

Amino acid sequences for entries named in this document (tags omitted). Residues count along the entry.
UniProt Q03135: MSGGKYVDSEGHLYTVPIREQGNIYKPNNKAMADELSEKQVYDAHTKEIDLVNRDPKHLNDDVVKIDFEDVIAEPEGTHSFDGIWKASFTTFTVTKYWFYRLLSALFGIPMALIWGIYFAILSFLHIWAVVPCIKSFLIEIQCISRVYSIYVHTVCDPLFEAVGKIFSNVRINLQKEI
UniProt P51570: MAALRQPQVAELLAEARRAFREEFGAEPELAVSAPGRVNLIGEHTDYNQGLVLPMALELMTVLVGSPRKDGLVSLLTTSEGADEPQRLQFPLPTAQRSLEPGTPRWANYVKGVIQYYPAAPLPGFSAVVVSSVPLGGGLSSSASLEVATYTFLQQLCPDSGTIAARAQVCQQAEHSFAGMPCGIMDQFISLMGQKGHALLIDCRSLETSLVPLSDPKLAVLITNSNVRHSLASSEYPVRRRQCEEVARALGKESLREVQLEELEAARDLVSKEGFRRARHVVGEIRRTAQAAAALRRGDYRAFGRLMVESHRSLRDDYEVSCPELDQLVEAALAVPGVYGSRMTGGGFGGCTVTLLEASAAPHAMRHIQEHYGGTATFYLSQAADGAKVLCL
UniProt Q15363, residues 21-201: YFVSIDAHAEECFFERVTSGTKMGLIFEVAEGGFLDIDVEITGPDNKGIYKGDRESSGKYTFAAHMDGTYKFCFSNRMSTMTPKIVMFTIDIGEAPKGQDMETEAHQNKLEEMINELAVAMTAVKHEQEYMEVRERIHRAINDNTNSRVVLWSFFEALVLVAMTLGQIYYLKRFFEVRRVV
UniProt P31946: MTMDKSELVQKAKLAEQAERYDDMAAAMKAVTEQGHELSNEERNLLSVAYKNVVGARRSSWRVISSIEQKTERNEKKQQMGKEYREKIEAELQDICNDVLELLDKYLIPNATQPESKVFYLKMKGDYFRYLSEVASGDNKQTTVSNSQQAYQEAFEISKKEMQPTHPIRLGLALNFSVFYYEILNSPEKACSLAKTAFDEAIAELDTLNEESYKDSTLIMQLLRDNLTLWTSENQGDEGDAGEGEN
UniProt P62258: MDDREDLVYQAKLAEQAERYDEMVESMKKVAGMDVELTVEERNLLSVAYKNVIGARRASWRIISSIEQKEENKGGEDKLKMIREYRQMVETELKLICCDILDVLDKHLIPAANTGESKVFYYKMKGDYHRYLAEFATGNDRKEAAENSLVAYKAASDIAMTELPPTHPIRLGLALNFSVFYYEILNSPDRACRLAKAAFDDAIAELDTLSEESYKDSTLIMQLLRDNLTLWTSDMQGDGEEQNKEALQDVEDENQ

Results are given in words; binding and its absence hold for the method and conditions named. In cells and extracts the contact can be indirect. Some binding calls cover weakened binding; strength is not graded here. Where a sequence is shown, tags or fusion partners need not be part of it.

To fix the notation:
B1: HA-tagged TMED10 (protein, UniProt P49755 32-219)
chain: ISFHLPINSRKCLREEIHKDLLVTGAYEISDQSGGAGGLRSHLKITDSAGHILYSKEDATKGKFAFTTEDYDMFEVCFESKGTGRIPDQLVILDMKHGVEAKNYEEIAKVEKLKPLEVELRRLEDLSESIVNDFAYMKKREEEMRDTNESTNTRVLYFSIFSMFCLIGLATWQVFYLRRFFKAKKLIE

The target in the experiment is human glucagon receptor (GCGR), C-terminal Flag-tagged (human) (UniProt P47871). The experiment in a line: co-IP; HA-tagged interactor and Flag-tagged GCGR co-transfected into CHO cells; anti-Flag Co-IP (M2 affinity gel), anti-HA Western blot; cells transfected with the HA-tagged interactor alone as control. (In general: In western blotting, separated proteins are transferred to a membrane and probed.)
As to “HA-tagged CAV1 (from UniProt Q03135 1-178)”, the binding entry is on record as “binds”. As for “HA-tagged GALK1 (from UniProt P51570 1-392)”, the binding entry was “binds”. As for “HA-tagged LDLR (from UniProt P01130 22-860) (receptor)”, the binding entry is “binds”. For “HA-tagged TMED2 (from UniProt Q15363 21-201)”, the binding entry is recorded as “binds”. Regarding “HA-tagged YWHAB (14-3-3 protein beta) (from UniProt P31946 1-246)”, the binding result is recorded as “binds”. Consider “HA-tagged YWHAE (from UniProt P62258 1-255)”, for which the binding result was “no binding”. On to B1, for which the binding result is listed as “no binding”.
